# Measured values: the supplement of paper PMC8728848
# The other results are listed elsewhere or left out.
# Assays:
# Assay in all cases: glycan array binding signal (z-score within array); higher = stronger binding
# Conditions in all cases: glycan notation: IUPAC condensed, linker removed
# [1] = molecular target: Fuc(a1-3)[Gal(b1-4)]GlcNAc(b1-2)Man(a1-6)[Gal(b1-4)GlcNAc(b1-2)Man(a1-3)]Man(b1-4)GlcNAc(b1-4)GlcNAc
# Method in brief: (§1)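 Glycan array data were curated from 3228 arrays in the Consortium for Functional Glycomics database and kept only where the protein sequence was available. Glycan names were converted to IUPAC-condensed notation, and columns mapping to the same glycan were averaged. The binding signal is a within-array Z-score, averaged across arrays of the same protein sequence at different concentrations or buffers and across linkers. Negative Z-scores can be read as non-binding.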
# [2] = molecular target: Fuc(a1-3)[Gal(b1-4)]GlcNAc(b1-3)Gal(b1-3)[Fuc(a1-4)]GlcNAc
# Method in brief: as §1
# [3] = molecular target: Fuc(a1-3)[Gal(b1-4)]GlcNAc(b1-4)Gal(b1-4)[Fuc(a1-3)]GlcNAc
# Method in brief: as §1
# [4] = molecular target: Fuc(a1-3)[Gal(b1-4)]GlcNAc(b1-4)Gal(b1-4)[Fuc(a1-3)]GlcNAc(b1-4)Gal(b1-4)[Fuc(a1-3)]GlcNAc
# Method in brief: as §1
# [5] = molecular target: Fuc(a1-3)[Gal(b1-4)]GlcNAc6S
# Method in brief: as §1
# [6] = molecular target: Fuc(a1-3)[Gal3S(b1-4)]Glc6S
# Method in brief: as §1
# [7] = molecular target: Fuc(a1-3)[Gal3S(b1-4)]GlcNAc
# Method in brief: as §1
# [8] = molecular target: Fuc(a1-3)[Gal3S(b1-4)]GlcNAc6S
# Method in brief: as §1
# [9] = molecular target: Fuc(a1-3)[GalNAc(b1-4)]GlcNAc
# Method in brief: as §1
# [10] = molecular target: Fuc(a1-4)GlcNAc
# Method in brief: as §1
# [11] = molecular target: Fuc(b1-3)GlcNAc
# Method in brief: as §1
# [12] = molecular target: Gal(a1-2)Gal
# Method in brief: as §1
# [13] = molecular target: Gal(a1-3)Gal
# Method in brief: as §1
# [14] = molecular target: Gal(a1-3)Gal(b1-3)GlcNAc
# Method in brief: as §1
# [15] = molecular target: Gal(a1-3)Gal(b1-4)Glc
# Method in brief: as §1
# [16] = molecular target: Gal(a1-3)Gal(b1-4)GlcNAc
# Method in brief: as §1
# [17] = molecular target: Gal(a1-3)Gal(b1-4)[Fuc(a1-3)]GlcNAc
# Method in brief: as §1
# [18] = molecular target: Gal(a1-3)GalNAc
# Method in brief: as §1
# [19] = molecular target: Gal(a1-3)[Gal(a1-4)]Gal(b1-4)GlcNAc
# Method in brief: as §1
# [20] = molecular target: Gal(a1-4)Gal(b1-4)Glc
# Method in brief: as §1
# [21] = molecular target: Gal(a1-4)Gal(b1-4)GlcNAc
# Method in brief: as §1
# [22] = molecular target: Gal(a1-4)GlcNAc
# Method in brief: as §1
# [23] = molecular target: Gal(a1-6)Glc
# Method in brief: as §1
# [24] = molecular target: Gal(b1-2)Gal
# Method in brief: as §1
# [25] = molecular target: Gal(b1-3)Gal
# Method in brief: as §1
# [26] = molecular target: Gal(b1-3)Gal(b1-4)GlcNAc
# Method in brief: as §1
# [27] = molecular target: Gal(b1-3)GalNAc
# Method in brief: as §1
# [28] = molecular target: Gal(b1-3)GalNAc(b1-3)Gal(a1-4)Gal(b1-4)Glc
# Method in brief: as §1
# [29] = molecular target: Gal(b1-3)GalNAc(b1-4)Gal(b1-4)Glc
# Method in brief: as §1
# [30] = molecular target: Gal(b1-3)GalNAc(b1-4)[Neu5Ac(a2-3)]Gal(b1-4)Glc
# Method in brief: as §1
# [31] = molecular target: Gal(b1-3)GlcNAc
# Method in brief: as §1
# [32] = molecular target: Gal(b1-3)GlcNAc(b1-2)Man(a1-3)[Gal(b1-3)GlcNAc(b1-2)Man(a1-6)]Man(b1-4)GlcNAc(b1-4)GlcNAc
# Method in brief: as §1
# [33] = molecular target: Gal(b1-3)GlcNAc(b1-3)Gal(b1-3)GlcNAc
# Method in brief: as §1
# [34] = molecular target: Gal(b1-3)GlcNAc(b1-3)Gal(b1-4)Glc
# Method in brief: as §1
# [35] = molecular target: Gal(b1-3)GlcNAc(b1-3)Gal(b1-4)GlcNAc
# Method in brief: as §1
# [36] = molecular target: Gal(b1-3)[Fuc(a1-4)]GlcNAc
# Method in brief: as §1
# [37] = molecular target: Gal(b1-3)[Fuc(a1-4)]GlcNAc(b1-3)Gal(b1-3)[Fuc(a1-4)]GlcNAc
# Method in brief: as §1
# [38] = molecular target: Gal(b1-3)[Fuc(a1-4)]GlcNAc(b1-3)Gal(b1-4)GlcNAc
# Method in brief: as §1
binder,measurement,setting,value
BDCA2 ex-domain (Homo sapiens) (protein) MASHHHHHHIEGRGLNDIFEAQKIEWHESLVPRGSCPTPWTSFQSSCYFISTGMQSWTKSQKNCSVMGADLVVINTREEQDFIIQNLKRNSSYFLGLSDPGGRRHWQWVDQTPYNENVTFWHSGEPNNLDERCAIINFRSSEEWGWNDIHCHVPQKSICKMKKIY,glycan array binding signal (z-score),[1],0.296
same,glycan array binding signal (z-score),[2],-0.04
same,glycan array binding signal (z-score),[3],-0.642
same,glycan array binding signal (z-score),[4],-0.226
same,glycan array binding signal (z-score),[5],-0.249
same,glycan array binding signal (z-score),[6],0.52
same,glycan array binding signal (z-score),[7],-0.204
same,glycan array binding signal (z-score),[8],1.05
same,glycan array binding signal (z-score),[9],-0.371
same,glycan array binding signal (z-score),[10],-0.259
same,glycan array binding signal (z-score),[11],-0.339
same,glycan array binding signal (z-score),[12],-0.233
same,glycan array binding signal (z-score),[13],-0.174
same,glycan array binding signal (z-score),[14],-0.292
same,glycan array binding signal (z-score),[15],-0.084
same,glycan array binding signal (z-score),[16],-0.415
same,glycan array binding signal (z-score),[17],-0.261
same,glycan array binding signal (z-score),[18],-0.143
same,glycan array binding signal (z-score),[19],-0.042
same,glycan array binding signal (z-score),[20],0.336
same,glycan array binding signal (z-score),[21],0.39
same,glycan array binding signal (z-score),[22],0.002
same,glycan array binding signal (z-score),[23],-0.135
same,glycan array binding signal (z-score),[24],0.271
same,glycan array binding signal (z-score),[25],-0.235
same,glycan array binding signal (z-score),[26],-0.245
same,glycan array binding signal (z-score),[27],-0.157
same,glycan array binding signal (z-score),[28],-0.375
same,glycan array binding signal (z-score),[29],-0.346
same,glycan array binding signal (z-score),[30],-0.468
same,glycan array binding signal (z-score),[31],-0.382
same,glycan array binding signal (z-score),[32],8.6
same,glycan array binding signal (z-score),[33],-0.221
same,glycan array binding signal (z-score),[34],-0.257
same,glycan array binding signal (z-score),[35],-0.239
same,glycan array binding signal (z-score),[36],-0.249
same,glycan array binding signal (z-score),[37],-0.373
same,glycan array binding signal (z-score),[38],-0.319
